Reference: paper PMC6919601, “Identification of Plasmodium dipeptidyl aminopeptidase allosteric inhibitors by high throughput screening” (PLoS ONE, 2019)
Among all 110,000 compounds or so, about 230 (0.21%) showed an effect of 50% or more. This is one part of the list.

target: DPAP1 (Plasmodium falciparum, UniProt Q8IIJ9); assay: primary screen, percent inhibition; read by cleavage of a fluorogenic dipeptide substrate; higher = more effect of the substance; parameters: species or system P. falciparum D10 trophozoite lysates; single well
Sequence (Q8IIJ9 whole entry, looked up): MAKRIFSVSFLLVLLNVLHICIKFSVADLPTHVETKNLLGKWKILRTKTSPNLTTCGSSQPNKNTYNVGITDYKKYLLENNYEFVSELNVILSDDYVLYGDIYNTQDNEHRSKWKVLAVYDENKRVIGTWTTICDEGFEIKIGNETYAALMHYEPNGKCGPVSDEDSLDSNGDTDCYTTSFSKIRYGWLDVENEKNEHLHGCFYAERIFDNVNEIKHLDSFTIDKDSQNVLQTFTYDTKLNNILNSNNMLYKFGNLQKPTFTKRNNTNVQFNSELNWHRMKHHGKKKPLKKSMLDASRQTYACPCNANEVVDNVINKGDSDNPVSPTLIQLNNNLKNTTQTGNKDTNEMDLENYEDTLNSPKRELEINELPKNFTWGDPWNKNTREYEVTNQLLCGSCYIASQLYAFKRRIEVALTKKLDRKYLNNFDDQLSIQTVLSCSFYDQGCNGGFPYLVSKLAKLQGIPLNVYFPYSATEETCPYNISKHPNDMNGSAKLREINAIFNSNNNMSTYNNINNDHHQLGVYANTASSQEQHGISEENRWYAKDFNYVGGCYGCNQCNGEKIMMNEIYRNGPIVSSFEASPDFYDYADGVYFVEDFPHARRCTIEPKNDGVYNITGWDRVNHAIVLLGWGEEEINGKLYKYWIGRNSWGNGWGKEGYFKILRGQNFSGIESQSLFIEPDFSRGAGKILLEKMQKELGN
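Also: 30 min substrate incubation versus DMSO and 10 µM JCP410 controls.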

SMILES | % Inhibition @ 10 uM [%]
Cc1oc2ccc(O)c(CN3CCCC(C)C3)c2c1C(=O)NC1CCCCC1 (stereo not drawn) | 3.74
Cc1nc(SCc2ccccc2)nc2ccccc12 | -3.37
O=C1NC(c2ccc(F)cc2)C(C(=O)c2ccccc2)C(O)(C(F)(F)F)N1 (stereo not drawn) | 3.13
O=C(Cn1ncc2ccccc2c1=O)NC(c1ccccc1)c1ccccc1 | -3.23
Cc1cc(Cl)cc(C)c1OCCCN1CCCC1 | -8.99
CCC(=O)Nc1ccc(-c2cn3cccc(C)c3n2)cc1 | 3.21
C=CCn1c(SCC(=O)Nc2ccc(NC(C)=O)cc2)nc2sc(-c3ccccc3)cc2c1=O | -3.46
COc1ccc2nc(NS(=O)(=O)c3ccc(C)cc3)sc2c1 | 1.84
COC(=O)CCC(=O)Nc1ccccc1Cl | -2.51
O=C(C1=C(O)C(=O)N(CCc2c[nH]c3ccccc23)C1c1ccc(O)cc1)c1ccccc1 (stereo not drawn) | 2.27
CCc1cccc(C)c1NC(=O)CCCOc1ccccc1 | -16.5
CCOC(=O)C1=C(O)c2ccccc2C1=O | 4.89
CCNC(=O)/C(C#N)=C/c1c(Oc2ccc(C)cc2)nc2c(C)cccn2c1=O | 2
Cc1cccc(NC(=O)CCc2ccc(S(=O)(=O)NC(C)c3ccccc3)cc2)c1 (stereo not drawn) | 3.29
COc1ccc(Br)cc1CN1CCC(O)CC1 | 1.38
Cc1ccc(/C(O)=C/C=N/c2ccc(S(=O)(=O)N=C(N)N)cc2)cc1 | -2.83
Cc1cc(Oc2nc3c(C)cccn3c(=O)c2/C=C(\C#N)C(=O)NC2CCCCC2)ccc1Cl | -1.43
O=C(Nc1ccc2c(c1)OCCO2)Nc1ccccc1Cl | 5.24
CCCCn1c(SCC(=O)NCCc2ccc(S(N)(=O)=O)cc2)nc2ccsc2c1=O | -1.52
O=C(O)/C=C/S(=O)(=O)c1ccccc1 | -0.778
OC1(C(O)(C#CCN2CCCCC2)c2ccccc2)CCCC1 (stereo not drawn) | 2.86
Cc1ccc(-c2ccc(=O)n(CC(=O)N3CCC(C)CC3)n2)cc1 | 0.514
COc1ccc(C2N(c3cc(C)on3)C(=O)C3CCCN32)cc1OC (stereo not drawn) | -2.29
O=C(c1ccc(Cl)c(Cl)c1)N1CCN(c2ccc(F)cc2)CC1 | -6.59

SMILES | % Inhibition @ 10 uM [%]
c1cncc(CN2CCSCC2)c1 | -2.56
CCN(CC)C(=O)c1sc(NC(=O)c2cc(-c3ccc(C)o3)nc3ccccc23)c(C(N)=O)c1C | 41.2
CC(C)(C)c1ccc(C2=NC3(CCN(C(=O)c4ccccc4F)CC3)NC2=O)cc1 | 2.25
COc1ccc(C(=N)NOC(=O)c2ccccc2)cc1OC | 3.79
c1ccc(CCn2c3ccccc3c3nnc(SCCN4CCOCC4)nc32)cc1 | 3.86
O=C(O)C/N=c1\c([N+](=O)[O-])c(O)oc2ccccc12 | -0.999
CC(=O)Nc1ccc(NC(=O)c2ccc(C3SCC(=O)N3Cc3ccccc3)cc2)cc1 (stereo not drawn) | 6.69
CCn1c(=S)[nH]c2c(c1=O)C1(CCCCC1)Cc1ccccc1-2 | -3.09
CSc1ccc(C2C(C#N)=C(N)N(c3ccccc3)C3=C2C(=O)CCC3)cc1 (stereo not drawn) | -3.46
CCN1CCN(C(=O)c2ccc(Cn3c(SCc4cccc(C)c4)nc4ccncc43)cc2)CC1 | -1.92
Cc1ccc(OCC(=O)NC2CC2)cc1C | -6.41
COc1ccccc1[C@@H]1[C@@H](C(=O)c2ccccc2)N2c3ccccc3C=C[C@@H]2C1(C#N)C#N | -7.74
C#CC(C)(CC)NC(=O)c1ccccc1C(=O)O (stereo not drawn) | -4.11
CC(C)(C)C1(C)O[C@@H](CO)[C@H](CO)O1 | -8.51
CCOC(=O)c1c(-c2ccccc2)csc1NC(=O)c1cc(-c2ccccc2OC)on1 | -1.28
O=C(C1CC(c2ccc(F)cc2)=NO1)N1CCC2(CC1)OCCO2 (stereo not drawn) | -3.94
Cc1oc2cc3oc(=O)c(CC(=O)N4CCOCC4)c(C)c3cc2c1C | 4.13
CC(C)C[C@H](NC(=O)OC1c2ccccc2-c2ccccc21)C(=O)NCC#N | -4.72
CCOC(=O)c1c(C)[nH]c(C)c1S(=O)(=O)N1CCC(C(=O)NCc2ccc3c(c2)OCO3)CC1 | -4.55
COc1ccccc1-c1nnc(C2CCN(C(=O)c3ccco3)CC2)o1 | -6.92
Cc1ccc(S(=O)(=O)N(CC(=O)Nc2ccccc2C(=O)O)c2ccccc2)cc1 | -5.13
COc1ccccc1OCC(=O)Nc1ccc(S(N)(=O)=O)cc1 | -0.884
Cn1ncc2c(NCc3ccco3)ncnc21 | 5.84
c1cncc(C2OCC(CN3CCCCC3)O2)c1 (stereo not drawn) | -0.415
